We go through 25 compounds from ChEMBL document CHEMBL4888484, “Replenishing the malaria drug discovery pipeline: Screening and hit evaluation of the MMV Hit Generation Library 1 (HGL1) against asexual blood stage Plasmodium falciparum ,using a nano luciferase reporter read-out” (2022).

Hit rate of the full screen: of about 150,000 compounds, about 540 (0.36%) showed an effect of 50% or more. The list shows a part of the results.

For the assay, the system named is Plasmodium falciparum. The assay can be described thus: Primary screen in NF54 nanoGlo assay, in single point, at 2uM, 72h; a lower Z score goes with more inhibition. Type of assay: functional, Erythrocyte. The conditions noted are these: timepoint 72 hour.
Usually % Inhibition stands for the relative decrease from the control value, in per cent. Turning to `N#Cc1cccc(C(=O)N2CCC[C@H](Oc3cccnn3)C2)c1`, the “% Inhibition” value was -4% and the Z score is listed as 0.47.
Consider `c1cncc(CNc2cc(-c3cnc4nn[nH]c4c3)c3cc[nH]c3n2)c1`, for which the “% Inhibition” value is on record as -3% and the Z score was found to be 0.58.
In the case of `NC(=O)C[C@H]1COCCN1C(=O)c1onc2c1CCCC2`, the “% Inhibition” value is reported as -5% and the Z score was 0.89.
`COc1ccc(CN2CCOC[C@@H]2C)nc1`: the “% Inhibition” value was -3% and the Z score came out at 0.47.
As for `COC(=O)[C@@H](O)C1CCN(Cc2ccc3ccccc3n2)CC1`, the “% Inhibition” value is listed as -11% and the Z score is listed as 0.92.
On to `CCCc1nc(CN[C@H]2CCN(C(=O)OCC)C2)cs1`, for which the “% Inhibition” value is -7% and the Z score worked out at 1.19.
`O=C(COc1ccccc1)Nc1ccc(S(=O)(=O)N2CCc3ccccc32)cc1`: the “% Inhibition” value was -5% and the Z score is listed as 0.65.
In the case of `CC(C)n1nnnc1Cn1cnn(C(C)(C)C)c1=O`, the “% Inhibition” value is listed as -16% and the Z score was determined as 1.41.
As to `Cc1noc2ncc(NC(=O)Cc3cccnc3)cc12`, the “% Inhibition” value came to 14% and the Z score was -1.96.
As for `Cn1nccc1C(=O)N(C1CCCCC1)C1CCCCC1`, the “% Inhibition” value turned out to be 40% and the Z score is recorded as -5.35.
For `CN(C)[C@@H](C(=O)NCC1=CCCCC1)c1ccc2c(c1)OCO2`, in that order: 9% and -1.22.
For `O=S(=O)(C[C@H]1CCCO1)Nc1cccc(Cl)c1F`, the “% Inhibition” value is on record as 8% and the Z score is on record as -1.54.
Regarding `O=c1ccc(F)cn1CCC1OCCO1`, the “% Inhibition” value was -7% and the Z score was determined as 1.25.
As to `CC(C)(CNC(=O)[C@H]1CCn2cncc2C1)C1CCCCC1`, the “% Inhibition” value came out at 1% and the Z score is listed as -0.09.
For the compound `Cc1ncc(NC(=O)c2scnc2C)c(C2CC2)n1`, the “% Inhibition” value is recorded as -18% and the Z score was found to be 1.78.
Regarding `O=C([C@@H]1Cn2cccc2C(=O)N1Cc1cccnc1)N1CCN(c2ncccn2)CC1`, the “% Inhibition” value is recorded as -2% and the Z score is reported as 0.26.
As to `COc1cccc(CCC(=O)N[C@H]2CNCCC2(F)F)c1F`, the “% Inhibition” value is recorded as -4% and the Z score was determined as 0.81.
For the compound `Cc1c(Cl)cccc1NC(=O)CCn1c(=O)cc(C(F)(F)F)c2cn(C(C)C)nc21`, the “% Inhibition” value was 33% and the Z score is listed as -3.73.
Take `CCCOC[C@H]1CCN(CC(=O)N2CCCCC2)C1`: the “% Inhibition” value is -6% and the Z score is 0.67.
On to `CCCCN(CC(N)=O)C(=O)c1ccc(C(F)(F)F)nc1`, for which the “% Inhibition” value is on record as -8% and the Z score is 1.28.
For the compound `CCOCCO[C@H]1CCN(C(=O)c2cnccn2)C1`, the “% Inhibition” value was determined as 7% and the Z score is on record as -1.33.
With `CN1Cc2ccc(NC(=O)C(=O)Nc3ccc(C#N)cc3)cc2C1`, the “% Inhibition” value was -24% and the Z score is 2.14.
Turning to `Cc1ncc2c(c1-c1nc(-c3ccc(F)cc3)cs1)CCC2`, the “% Inhibition” value is listed as -3% and the Z score is 0.43.
For the compound `Cc1ccc(NS(=O)(=O)c2c(C)[nH]c(C)c2-c2nc(C3CC3)no2)c(Cl)c1`, the “% Inhibition” value is reported as -14% and the Z score amounted to 2.7.
For `COc1ccc(-c2ccc(C(=O)NC3CC3)o2)c(C)c1`, in that order: -17% and 1.79.
